# Results from the supplement of paper PMC8728848.
# Some of the results follow.
# B1: SefD (Salmonella enterica), Q9L6K6 (protein)
# chain: GAYIIRGQNNSAHKLRIRIGGEDWQPDNSGIGMVSHSDFTNEFNIYYFGNGDIPVDTYLISIYATEIEL
# Columns and labels:
# Test in all cases: glycan array binding signal (z-score within array); higher = stronger binding
# Conditions in all cases: glycan notation: IUPAC condensed, linker removed
# [1] = target: Gal(b1-3)GlcNAc(a1-6)Gal(b1-4)GlcNAc
# In short: (§1)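 Arrays were curated from the Consortium for Functional Glycomics database, 3228 in total, and kept only where the protein sequence was available. Binding is expressed as a within-array Z-score. This score was averaged across arrays of the same protein sequence at different concentrations or buffers and across linkers, and negative values can be read as non-binding.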
# [2] = target: Gal(b1-3)GlcNAc(b1-2)Man(a1-3)[Gal(b1-3)GlcNAc(b1-2)Man(a1-6)]Man(b1-4)GlcNAc(b1-4)GlcNAc
# In short: as §1
# [3] = target: Gal(b1-3)GlcNAc(b1-2)Man(a1-3)[Gal(b1-3)GlcNAc(b1-2)Man(a1-6)]Man(b1-4)GlcNAc(b1-4)[Fuc(a1-6)]GlcNAc
# In short: as §1
# [4] = target: Gal(b1-3)GlcNAc(b1-2)[Gal(b1-3)GlcNAc(b1-6)]Man(a1-6)[Gal(b1-3)GlcNAc(b1-2)Man(a1-3)]Man(b1-4)GlcNAc(b1-4)GlcNAc
# In short: as §1
# [5] = target: Gal(b1-3)GlcNAc(b1-3)Gal(b1-3)GlcNAc
# In short: as §1
# [6] = target: Gal(b1-3)GlcNAc(b1-3)Gal(b1-4)Glc
# In short: as §1
# [7] = target: Gal(b1-3)GlcNAc(b1-3)Gal(b1-4)GlcNAc
# In short: as §1
# [8] = target: Gal(b1-3)GlcNAc(b1-3)Gal(b1-4)GlcNAc(b1-6)[Gal(b1-3)GlcNAc(b1-3)]Gal(b1-4)Glc
# In short: as §1
# [9] = target: Gal(b1-3)GlcNAc(b1-3)Gal(b1-4)[Fuc(a1-3)]GlcNAc(b1-6)[Gal(b1-3)GlcNAc(b1-3)]Gal(b1-4)Glc
# In short: as §1
# [10] = target: Gal(b1-3)GlcNAc(b1-3)GalNAc
# In short: as §1
# [11] = target: Gal(b1-3)GlcNAc(b1-6)Gal(b1-4)GlcNAc
# In short: as §1
# [12] = target: Gal(b1-3)[Fuc(a1-4)]GlcNAc
# In short: as §1
# [13] = target: Gal(b1-3)[Fuc(a1-4)]GlcNAc(b1-2)Man(a1-3)[Gal(b1-3)[Fuc(a1-4)]GlcNAc(b1-2)Man(a1-6)]Man(b1-4)GlcNAc(b1-4)GlcNAc
# In short: as §1
# [14] = target: Gal(b1-3)[Fuc(a1-4)]GlcNAc(b1-2)Man(a1-3)[Gal(b1-3)[Fuc(a1-4)]GlcNAc(b1-2)Man(a1-6)]Man(b1-4)GlcNAc(b1-4)[Fuc(a1-6)]GlcNAc
# In short: as §1
# [15] = target: Gal(b1-3)[Fuc(a1-4)]GlcNAc(b1-3)Gal(b1-3)[Fuc(a1-4)]GlcNAc
# In short: as §1
# [16] = target: Gal(b1-3)[Fuc(a1-4)]GlcNAc(b1-3)Gal(b1-4)GlcNAc
# In short: as §1
# [17] = target: Gal(b1-3)[Fuc(a1-4)]GlcNAc(b1-3)Gal(b1-4)[Fuc(a1-3)]GlcNAc
# In short: as §1
# [18] = target: Gal(b1-3)[GlcNAc(b1-6)]GalNAc
# In short: as §1
# [19] = target: Gal(b1-3)[Neu5Ac(a2-6)]GalNAc
# In short: as §1
# [20] = target: Gal(b1-3)[Neu5Ac(a2-6)]GlcNAc(b1-6)Gal(b1-4)Glc
# In short: as §1
# [21] = target: Gal(b1-3)[Neu5Ac(b2-6)]GalNAc
# In short: as §1
# [22] = target: Gal(b1-4)Gal
# In short: as §1
# [23] = target: Gal(b1-4)GalNAc(a1-3)[Fuc(a1-2)]Gal(b1-4)GlcNAc
# In short: as §1
# [24] = target: Gal(b1-4)GalNAc(b1-3)[Fuc(a1-2)]Gal(b1-4)GlcNAc
# In short: as §1
# [25] = target: Gal(b1-4)Glc
# In short: as §1
# [26] = target: Gal(b1-4)Glc6S
# In short: as §1
# [27] = target: Gal(b1-4)GlcNAc
# In short: as §1
# [28] = target: Gal(b1-4)GlcNAc(a1-6)Gal(b1-4)GlcNAc
# In short: as §1
# [29] = target: Gal(b1-4)GlcNAc(b1-2)Man
# In short: as §1
# [30] = target: Gal(b1-4)GlcNAc(b1-2)Man(a1-3)Man(b1-4)GlcNAc(b1-4)GlcNAc
# In short: as §1
# [31] = target: Gal(b1-4)GlcNAc(b1-2)Man(a1-3)[Gal(b1-4)GlcNAc(b1-2)Man(a1-6)]Man(b1-4)GlcNAc(b1-4)GlcNAc
# In short: as §1
# [32] = target: Gal(b1-4)GlcNAc(b1-2)Man(a1-3)[Gal(b1-4)GlcNAc(b1-2)Man(a1-6)]Man(b1-4)GlcNAc(b1-4)[Fuc(a1-6)]GlcNAc
# In short: as §1
# [33] = target: Gal(b1-4)GlcNAc(b1-2)Man(a1-3)[Gal(b1-4)GlcNAc(b1-2)][GlcNAc(b1-4)]Man(b1-4)GlcNAc(b1-4)GlcNAc
# In short: as §1
# [34] = target: Gal(b1-4)GlcNAc(b1-2)Man(a1-3)[GlcNAc(b1-2)Man(a1-6)]Man(b1-4)GlcNAc(b1-4)GlcNAc
# In short: as §1
# [35] = target: Gal(b1-4)GlcNAc(b1-2)Man(a1-3)[Man(a1-6)]Man(b1-4)GlcNAc(b1-4)GlcNAc
# In short: as §1
# [36] = target: Gal(b1-4)GlcNAc(b1-2)Man(a1-6)Man(b1-4)GlcNAc(b1-4)GlcNAc
# In short: as §1
# [37] = target: Gal(b1-4)GlcNAc(b1-2)Man(a1-6)[GlcNAc(b1-2)Man(a1-3)]Man(b1-4)GlcNAc(b1-4)GlcNAc
# In short: as §1
# [38] = target: Gal(b1-4)GlcNAc(b1-2)Man(a1-6)[Man(a1-3)]Man(b1-4)GlcNAc(b1-4)GlcNAc
# In short: as §1
# [39] = target: Gal(b1-4)GlcNAc(b1-2)[Gal(b1-4)GlcNAc(b1-4)]Man(a1-3)[Gal(b1-4)GlcNAc(b1-2)Man(a1-6)]Man(b1-4)GlcNAc(b1-4)GlcNAc
# In short: as §1
# [40] = target: Gal(b1-4)GlcNAc(b1-2)[Gal(b1-4)GlcNAc(b1-4)]Man(a1-3)[Gal(b1-4)GlcNAc(b1-2)[Gal(b1-4)GlcNAc(b1-6)]Man(a1-6)]Man(b1-4)GlcNAc(b1-4)GlcNAc
# In short: as §1
# [41] = target: Gal(b1-4)GlcNAc(b1-2)[Gal(b1-4)GlcNAc(b1-4)]Man(a1-3)[GlcNAc(b1-4)][Gal(b1-4)GlcNAc(b1-2)Man(a1-6)]Man(b1-4)GlcNAc(b1-4)GlcNAc
# In short: as §1
# [42] = target: Gal(b1-4)GlcNAc(b1-2)[Gal(b1-4)GlcNAc(b1-4)]Man(a1-3)[GlcNAc(b1-4)][Gal(b1-4)GlcNAc(b1-2)[Gal(b1-4)GlcNAc(b1-6)]Man(a1-6)]Man(b1-4)GlcNAc(b1-4)GlcNAc
# In short: as §1
# [43] = target: Gal(b1-4)GlcNAc(b1-2)[Gal(b1-4)GlcNAc(b1-6)]Man(a1-6)[Gal(b1-4)GlcNAc(b1-2)Man(a1-3)]Man(b1-4)GlcNAc(b1-4)GlcNAc
# In short: as §1
# [44] = target: Gal(b1-4)GlcNAc(b1-2)[Gal(b1-4)GlcNAc(b1-6)]Man(a1-6)[GlcNAc(b1-4)][Gal(b1-4)GlcNAc(b1-2)Man(a1-3)]Man(b1-4)GlcNAc(b1-4)GlcNAc
# In short: as §1
# [45] = target: Gal(b1-4)GlcNAc(b1-3)Gal(b1-3)GlcNAc
# In short: as §1
binder,measurement,setting,value
B1,glycan array binding signal (z-score),[1],-0.529
same,glycan array binding signal (z-score),[2],-0.233
same,glycan array binding signal (z-score),[3],-0.254
same,glycan array binding signal (z-score),[4],-0.174
same,glycan array binding signal (z-score),[5],-0.433
same,glycan array binding signal (z-score),[6],-0.1
same,glycan array binding signal (z-score),[7],-0.471
same,glycan array binding signal (z-score),[8],-0.037
same,glycan array binding signal (z-score),[9],2.22
same,glycan array binding signal (z-score),[10],-0.115
same,glycan array binding signal (z-score),[11],-0.308
same,glycan array binding signal (z-score),[12],-0.402
same,glycan array binding signal (z-score),[13],0.237
same,glycan array binding signal (z-score),[14],-0.2
same,glycan array binding signal (z-score),[15],-0.352
same,glycan array binding signal (z-score),[16],-0.466
same,glycan array binding signal (z-score),[17],-0.408
same,glycan array binding signal (z-score),[18],-0.291
same,glycan array binding signal (z-score),[19],-0.336
same,glycan array binding signal (z-score),[20],-0.532
same,glycan array binding signal (z-score),[21],0.319
same,glycan array binding signal (z-score),[22],0.157
same,glycan array binding signal (z-score),[23],-0.1
same,glycan array binding signal (z-score),[24],-0.425
same,glycan array binding signal (z-score),[25],-0.272
same,glycan array binding signal (z-score),[26],-0.395
same,glycan array binding signal (z-score),[27],0.971
same,glycan array binding signal (z-score),[28],-0.274
same,glycan array binding signal (z-score),[29],-0.245
same,glycan array binding signal (z-score),[30],-0.377
same,glycan array binding signal (z-score),[31],-0.456
same,glycan array binding signal (z-score),[32],-0.254
same,glycan array binding signal (z-score),[33],0.247
same,glycan array binding signal (z-score),[34],-0.3
same,glycan array binding signal (z-score),[35],-0.377
same,glycan array binding signal (z-score),[36],-0.044
same,glycan array binding signal (z-score),[37],-0.388
same,glycan array binding signal (z-score),[38],0.938
same,glycan array binding signal (z-score),[39],-0.337
same,glycan array binding signal (z-score),[40],0.553
same,glycan array binding signal (z-score),[41],-0.137
same,glycan array binding signal (z-score),[42],-0.481
same,glycan array binding signal (z-score),[43],0.127
same,glycan array binding signal (z-score),[44],-0.282
same,glycan array binding signal (z-score),[45],-0.372
